In all, about 150,000 compounds went through this assay and about 540 (0.36%) showed an effect of 50% or more. The list shows a part of the results.

The assay has as its system Plasmodium falciparum. Nature of the assay: Primary screen in NF54 nanoGlo assay, in single point, at 2uM, 72h; a lower Z score goes with more inhibition. It counts as functional, Erythrocyte. Conditions: timepoint 72 hour.
Usually % Inhibition stands for the change of the read-out against control, counted positive when it falls. Turning to `Cn1cc(CNC(=O)c2ccc3oc(-c4cccc(F)c4)nc3c2)cn1`, the “% Inhibition” value is on record as -11% and the Z score came to 1.49.

As to `CN1CCCN(C(=O)c2cncc(-c3ccc4c(c3)CCO4)c2)CC1`, the “% Inhibition” value was -9% and the Z score was found to be 0.88.

Regarding `O=C(N[C@H]1CCS(=O)(=O)C1)c1occc1-c1ccccc1`, the “% Inhibition” value is 10% and the Z score is -1.82.

On to `CC(C)(C)[C@@](C)(C#N)NC(=O)C1CN(C(=O)C2CCCCC2)C1`, for which the “% Inhibition” value is -3% and the Z score is given as 0.41.

Take `CCC(=O)N[C@@H](C)COc1ccccc1OC`: the “% Inhibition” value is -10% and the Z score was 1.1.

As for `CC(NC(=O)C1CC(=O)N(C)C1)c1cccs1` (stereo unspecified), the “% Inhibition” value was -18% and the Z score came to 1.83.

As for `Cc1nc(N(C)Cc2nc3ccccc3s2)c2nc(C)oc2n1`, the “% Inhibition” value is on record as -3% and the Z score amounted to 0.36.

As for `CCc1cc(O)ccc1NC(=O)C1CCOC1C` (stereo unspecified), the “% Inhibition” value was -2% and the Z score was determined as 0.14.

`O=C(CN1CCOCC1)NCCCC[C@H]1CCCO1`: the “% Inhibition” value was -13% and the Z score is on record as 1.85.

Consider `COc1ccc(CCc2nc(CC(N)=O)nn2CCO)cc1`, for which the “% Inhibition” value is -23% and the Z score is recorded as 2.28.

On to `Cc1cc(Br)ccc1CC(=O)NCCNC(=O)N(C)C`, for which the “% Inhibition” value is -9% and the Z score is given as 0.91.

Regarding `CCOC1CN(C(=O)NC[C@H]2CC(=O)N(CCOC)[C@@H]2c2cnn(C)c2C)C1`, the “% Inhibition” value is on record as 1% and the Z score is -0.14.

As for `CN(C)C(=O)CCNC(=O)NOCc1ccccc1`, the “% Inhibition” value is recorded as -1% and the Z score is given as 0.25.

For `O=C(NC[C@H]1OC[C@@H](N(Cc2ccc(F)cc2)Cc2ccc(F)cc2)[C@@H]1O)c1ccccc1`, the “% Inhibition” value amounted to 10% and the Z score is reported as -1.2.

Turning to `COc1ccc(C(=O)N(CC(=O)Nc2nc(-c3ccc(Cl)cc3)cn2-c2cccc(OC)c2)CC(C)C)cc1`, the “% Inhibition” value worked out at 8% and the Z score was -1.57.

As for `O=C(c1cnc(O)c(Cl)c1)N1CC[C@H](Oc2cnc3ccccc3n2)C1`, the “% Inhibition” value is -1% and the Z score is on record as 0.24.

Take `O[C@@H]1C[C@@H](c2nc(C3CC3)no2)N(C2CCOCC2)C1`: the “% Inhibition” value is on record as -8% and the Z score worked out at 1.01.

Turning to `CCN1CCN([C@@H](c2nnc(-c3ccccc3)o2)c2ccccc2F)CC1`, the “% Inhibition” value is listed as -15% and the Z score came out at 1.64.

As to `O=c1[nH]c(-c2cccnc2)nc2ccc(-c3ccccc3)cc12`, the “% Inhibition” value is -6% and the Z score was 0.83.

Take `Cn1nccc1[C@@H]1CN(C(=O)c2ccc3c(c2)-c2ccccc2C3)C[C@H]1N`: the “% Inhibition” value is listed as -8% and the Z score amounted to 1.16.

Consider `COC[C@@H]1CN(S(=O)(=O)c2ccc3c(c2)CCCC3)C[C@H]1C(N)=O`, for which the “% Inhibition” value is on record as -5% and the Z score came to 0.75.

Regarding `Cc1sc(-c2nnc(C(C)C)o2)cc1NC(=O)c1ccccc1`, the “% Inhibition” value was -11% and the Z score worked out at 1.03.

Consider `CCN(CC(=O)Nc1ccc2c(c1)OCCO2)C(=O)C1=COCCO1`, for which the “% Inhibition” value was 0% and the Z score worked out at 0.04.

On to `O=C1OC2CC1N(C(=O)Cc1ccccc1Cl)C2` (stereo unspecified), for which the “% Inhibition” value is reported as -3% and the Z score was found to be 0.47.

`COc1ccc(CN2C(=O)c3ccccc3C2=O)cc1C(=O)NC1CCN2CCCCC12` (stereo unspecified): the “% Inhibition” value was -4% and the Z score is recorded as 0.5.

Regarding `Cc1ncncc1C(=O)N(Cc1cccnc1)C1CCCCC1`, the “% Inhibition” value is recorded as -5% and the Z score is reported as 0.91.

As for `Cc1ccc(NC(=O)[C@H]2CC23CCCCC3)cn1`, the “% Inhibition” value was -6% and the Z score worked out at 1.08.

As for `Fc1ccc(CN[C@H]2CCCOC2)nc1`, the “% Inhibition” value was -3% and the Z score is on record as 0.48.

With `CC(C)(C(=O)N1CCCc2n[nH]cc21)C1CCC(O)CC1` (stereo unspecified), the “% Inhibition” value is reported as -6% and the Z score is 1.23.

Regarding `Cc1c(Cl)cccc1N1C(=O)c2cc3occc3n2C[C@@]1(C)C(=O)NC1CCCCCC1`, the “% Inhibition” value is reported as -20% and the Z score worked out at 3.68.

Consider `COc1ccc([C@H](C)NCCc2nc(C(C)C)no2)c(F)c1`, for which the “% Inhibition” value is recorded as -5% and the Z score stood at 0.76.

Take `CCO[C@H]1C[C@@H](O)C12CCN(C(=O)c1ccncc1)CC2`: the “% Inhibition” value is reported as -6% and the Z score was 1.12.

Turning to `Cc1cnc(CNC(=O)CC(=O)Nc2cc(Cl)ccc2C)cn1`, the “% Inhibition” value was -20% and the Z score stood at 1.89.

Consider `O=C(O)C[C@@H]1CCN(C(=O)NCc2ccccc2)C[C@@H]1CC1=NCCc2ccccc21`, for which the “% Inhibition” value was -8% and the Z score amounted to 1.17.

Consider `O=S(=O)(Nc1cc(S(=O)(=O)N2CCCC2)ccc1OCC(F)(F)F)c1ccc2c(c1)OCCO2`, for which the “% Inhibition” value was -5% and the Z score came to 0.74.

As for `CC(C)(C)OC(=O)N1CCc2ncc(NC3CCOCC3)cc2C1`, the “% Inhibition” value is on record as -2% and the Z score came out at 0.38.

`CC(C)(N)COc1ncccc1Br`: the “% Inhibition” value is -15% and the Z score is on record as 2.09.

Regarding `Cc1cc(-c2cccc3c2OCC3)c(=O)[nH]n1`, the “% Inhibition” value was found to be 1% and the Z score is reported as -0.21.

Regarding `NC(=O)CN1CCC(Cn2cnc3ccccc32)CC1`, the “% Inhibition” value is -6% and the Z score is 0.71.

With `Cc1cccnc1C[C@H](C)Nc1ncncn1`, the “% Inhibition” value is -5% and the Z score was determined as 0.6.

Turning to `COc1ccc(-c2ccc(CN3CCN(C)CC3)cn2)cc1F`, the “% Inhibition” value worked out at 5% and the Z score is on record as -0.85.

As to `COCCN1CC[C@@]2(CCC1=O)CN(Cc1nc(C(C)C)no1)CCN2C`, the “% Inhibition” value is given as -11% and the Z score is recorded as 1.75.

With `Cc1nc(C)n(C2CN(C(=O)Cc3csc(-c4ccc(C)o4)n3)C2)n1`, the “% Inhibition” value turned out to be 1% and the Z score was -0.14.
